Experimental data published in PubChem BioAssay AID686970 (National Center for Advancing Translational Sciences (NCATS), 2013).
The campaign covered roughly 360,000 compounds. About 6,000 (1.7%) were called active. This list was built around the results that the source calls inconclusive (neither active nor inactive); the mix of calls is not that of the screen. Calls come from the whole dose curve; as a rule, active = well fitted cell-killing curve with a large enough effect; inconclusive = small, poorly fitted or top-dose-only effect, or effect the other way; inactive = flat fitted curve, though single readings scatter. No potency is given beside an inconclusive call; the fits are too rough.

test: qHTS for induction of synthetic lethality in tumor cells producing 2HG: qHTS for the HT-1080-NT fibrosarcoma cell line; settings: HT-1080-NT fibrosarcoma viability, CellTiter-Glo ATP luminescence, 48 h; activity, negative = less viability: at 46.1 µM (top of the series) unless noted;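 note: NT is the 2HG producing partner of a matched IDH1 knockdown line; nearly all actives have a fitted effect of over 55% in size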;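 for activity, negative = less viability: 0% = DMSO-treated cells and -100% = media-only wells without cells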
In short: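 HT-1080-NT fibrosarcoma cells (2HG-overproducing), 750 cells/well in RPMI with 5% FBS, dosed after 2 h and incubated 48 h at 37C. CellTiter-Glo luminescence normalized to DMSO and no-cell wells; concentration-response curves fitted and classed.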
Potency is the fitted concentration of half-maximal effect; tags give direction and shape of the fitted curve.

Compound	Potency	activity, negative = less viability
Cc1ccc(OCCn2c(C)c(/C=N/n3cnnc3)c3ccccc32)cc1	inconclusive [cytotoxic, single point]	–
CN(C)C(=O)C(OC(=O)c1ccc2ccccc2n1)c1ccccc1 (configuration not stated)	inactive	–
O[C@H]1C[C@H](c2ccccc2)N(CC2CCCCC2)C[C@@H]1n1cc(C2CC2)nn1	inconclusive [cytotoxic, single point]	–
CCC(c1nnc(SC(C)C(=O)NC2CC2)n1-c1ccc(OC)cc1)N(C)C (configuration not stated)	inactive	–
O=C(O)C1C=CC(C(=O)O)c2ccccc21 (configuration not stated)	inactive	–
COc1ccc(/C=C2\SC(=O)N(CC(=O)Nc3cccc(C)c3)C2=O)cc1O	inconclusive [cytotoxic, single point]	–
NCCS(=O)(=O)O	inconclusive [rising, single point]	–
O=S(=O)(c1ccc(N2CC=C(c3ccccc3)CC2)nc1)N1CCCC1	inconclusive [cytotoxic, single point]	–
CCn1c2ccccc2c2cc(NC(=O)CNC)ccc21	inconclusive [cytotoxic, single point]	–
CC(C)(C)S(=O)N1Cc2cc(C(=O)Nc3ccc(-c4ccccc4)cc3)nc(-c3cccc(-c4cc5ccccc5o4)c3)c2[C@@H]1CCO (some centres not stated)	inconclusive [cytotoxic, single point]	–
CCN1C(=O)[C@H]2[C@@H](c3ccc(-c4ccc(OC)cc4)c(OC)c3)N[C@@](Cc3ccccc3)(C(=O)OC)[C@H]2C1=O	inactive	–
N#C/C(=C(/O)c1ccc([N+](=O)[O-])s1)c1nc2ccccc2[nH]1	inconclusive [cytotoxic, partial curve]	–
NC(=O)c1ccc(Cn2c(C(=O)c3cc(Cl)c(N)c(Cl)c3)c3ccccc3[n+]2[O-])cc1	active: 16.4 µM	–
CCOC(=O)C(NC(C)=O)C(=O)Nc1c(C)cccc1C (configuration not stated)	inactive	–
Cc1nnc(NC(=O)CSc2nc3ccccc3o2)s1	inconclusive [cytotoxic, partial curve]	–
CC(=O)NCCNc1nc2cc(-c3ccc(C(=O)N4CCN(C)CC4)cc3)sc2c(=O)n1C	inactive	–
COc1ccc(CCNC2CC(=O)N(N(C)C)C2=O)cc1OC (configuration not stated)	inconclusive [rising, partial curve]	–
OCC1(Cc2ccccc2C(F)(F)F)CCN(Cc2cccc3cnccc23)CC1	inconclusive [cytotoxic, single point]	–
CC(C)N1CC(O)=C(c2nc3ccccc3[nH]2)C1=N	inactive	–
Cc1cc(C(=O)CSc2nnc(-c3cccnc3)n2-c2ccccc2F)c(C)n1C	inactive	–
COc1cc(C(CC(=O)Nc2ccc(C)cn2)N2Cc3ccccc3C2=O)cc(OC)c1OC (configuration not stated)	inconclusive [cytotoxic, single point]	–
CC1(c2ccc3ccccc3c2)NC(=O)N(CC(=O)N2CCN(Cc3ccc(C#N)cc3)CC2)C1=O (configuration not stated)	inconclusive [cytotoxic, full curve, poor fit]	–
CCCCc1ccc(NC(=S)Nc2ccc(Cl)c(S(=O)(=O)N(C)C)c2)cc1	inconclusive [cytotoxic, partial curve]	–
N/C(=N\OC(=O)/C=C/c1ccccc1)c1ccncc1	inactive	–

Compound	Potency	activity, negative = less viability
Cc1ccc(S(=O)(=O)N(CC(=O)Nc2cccnc2)c2cccc([N+](=O)[O-])c2)cc1	inconclusive [cytotoxic, single point]	–
COc1cccc(CNc2cnc3ccccc3c2)c1O	inconclusive [cytotoxic, single point]	–
CN(C)S(=O)(=O)c1ccc(C(=O)Nc2nnc(SCc3cccc4ccccc34)s2)cc1	inconclusive [cytotoxic, single point]	–
O=C(Nc1ccc(Cl)c(Cl)c1)N(Cc1cccnc1)Cc1ccco1	inconclusive [cytotoxic, single point]	–
Cc1ccc(N2C(=O)[C@@H]3[C@H](C2=O)C2CCCN2[C@@H]3C(=O)c2ccccc2)cc1 (some centres not stated)	inconclusive [cytotoxic, single point]	–
Cc1nc(Nc2cnc(/C=C/c3cc(C(=O)Nc4cccc(C(F)(F)F)c4)ccc3C)cn2)cc(N2CCNCC2)n1	inconclusive [cytotoxic, single point]	–
COc1ccc([C@H]2CC(=O)C=C(c3cc(Cl)ccc3OC)C2)cc1	inconclusive [cytotoxic, single point]	–
C=CCNC(=O)/C(C#N)=C/c1c(C)nn(-c2ccccc2)c1Cl	inconclusive [cytotoxic, single point]	–
CCOCCCNc1nc(C(F)(F)F)nc2c1nnn2Cc1ccccc1Cl	inconclusive [cytotoxic, single point]	–
CCOc1ccc(N2CC(C(=O)Nc3c(C)n(C)n(-c4ccccc4)c3=O)CC2=O)cc1 (configuration not stated)	inconclusive [rising, partial curve]	–
CCCC(=O)NC1=C(Cl)C(=O)c2ccccc2C1=O	inconclusive [cytotoxic, partial curve]	–
CC(C)Cc1ccc(-c2ccc3nccn3c2)cc1	inconclusive [cytotoxic, single point]	–
Cc1ccc(-c2nc3c(Cl)cc(C(F)(F)F)cn3c2Cc2ccccc2)cc1	inactive	–
C=C1CC2C(CCC3(C)C2CCC3(O)C(C)=O)C2(C)CCC(=O)C=C12 (configuration not stated)	inconclusive [cytotoxic, single point]	–
Cc1ccc(C(=O)/C=C/c2ccc(F)cc2)o1	inconclusive [cytotoxic, single point]	–
N#Cc1ccc(NC(=O)Cn2cnc(S(=O)(=O)N3CCOCC3)c2)cc1	inactive	–
C=CCOC(=O)C1=C[C@@H](c2csc3ccccc23)C[C@@H](OCc2ccc(CO)cc2)O1	inactive	–
CCC(c1nnnn1-c1ccc2c(c1)OCCO2)N1CCN(c2cc(C)ccc2C)CC1 (configuration not stated)	inconclusive [cytotoxic, single point]	–
COc1ccc(CCN2CC(C(=O)OCC(=O)N(C)Cc3ccccc3)CC2=O)cc1OC (configuration not stated)	inactive	–
C=CCSc1nc2ccccc2n1C(=O)/C=C/c1cc(OC)c(OC)c(OC)c1	active: 5.01 µM	–
Cn1cccc1C(=O)C(=O)Nc1cc(Cl)cc(Cl)c1	inconclusive [cytotoxic, single point]	–
CN(C)CCNC(=O)c1sc2nc(-c3ccccc3)cc(C(F)(F)F)c2c1N	active: 23.1 µM	–
COc1cc(-c2cc(C(=O)Nc3cccc(S(=O)(=O)N(C)C)c3)c3ccccc3n2)cc(OC)c1OC	inconclusive [cytotoxic, single point]	–
C=CCNC(=S)N/N=C/c1ccc(C(F)(F)F)cc1	inconclusive [cytotoxic, single point]	–

Compound	Potency	activity, negative = less viability
CC1(C)CC(=O)C=C(C#CC2(O)CCCCC2)C1	active: 5.17 µM	–
Nc1nc2ccccc2cc1C(=O)NCCCCc1ccccc1	–	inconclusive: -29.2% [cytotoxic]
CC(C)(C)C(=O)Nc1ccc(C(=O)OC2CCCCC2)cc1	active: 12.6 µM	–
CC(=O)Nc1ccc(SCC(=O)Nc2ccc(Cl)cn2)cc1	–	inconclusive: 8.34%
CCCCCC(O)(c1ccc(OC)cc1)C(CN1CCOCC1)c1ccccc1 (configuration not stated)	inconclusive [cytotoxic, single point]	–
CCCCCCCC(=O)NNC(=O)CC(=O)Nc1ccccc1C(=O)O	inactive	–
CCc1cccc(NS(=O)(=O)c2c(C)[nH]c(=O)[nH]c2=O)c1	inactive	–
Cc1c(C#N)c(NC(=O)CCl)n(Cc2cccs2)c1C	active: 16.4 µM	–
CC(C)(C)NS(=O)(=O)c1ccc(NS(=O)(=O)c2ccc(F)cc2)cc1	inactive	–
CN(C)c1ccc(/C=C2/C[N+](C)(C)C/C(=C/c3ccc(N(C)C)cc3)C2=O)cc1	inconclusive [cytotoxic, partial curve]	–
Cc1ccc(C2/C(=C(\O)c3ccc4c(c3)OCCO4)C(=O)C(=O)N2CC2CCCO2)cc1 (configuration not stated)	inactive	–
Clc1cc(Br)ccc1OCCOCCOc1cccc2cccnc12	inconclusive [cytotoxic, single point]	–
O=C1NN=C(CSc2n[nH]c(=S)s2)CS1	–	inconclusive: 7.62%
C=CC1CN2CCC1CC2C(O)c1ccnc2ccc(OC)cc12 (configuration not stated)	inactive	–
COc1cc2c(C)nc3c(cnn3-c3ccccc3)c2cc1OC	inconclusive [rising, partial curve, poor fit]	–
CCOC(=O)c1c(NC(=O)CC2SC(N)=NC2=O)sc2c1CCCC2 (configuration not stated)	inconclusive [cytotoxic, full curve, poor fit]	–
CCCNc1nc2c(c(=O)n(C)c(=O)n2C)n1CCc1ccccc1	inconclusive [cytotoxic, single point]	–
O=C(CC(Nc1ccccc1)c1ccccc1)C1CC1 (configuration not stated)	inactive	–
CN1CCCC(CC2Oc3ccccc3Sc3ccccc32)C1 (configuration not stated)	active: 14.6 µM	–
Nc1nonc1NC(=O)CSc1nc2ccccc2s1	inactive	–
CC(C)(C)NC(=O)COC(=O)c1snc(C(=O)NC2CCCCC2)c1N	inconclusive [cytotoxic, partial curve]	–
COc1c(F)c(F)c(C(=O)Nc2ccc(N3CCN(Cc4ccccc4)CC3)cc2)c(F)c1F	inconclusive [cytotoxic, single point]	–
O=C(NC1CCCCC1)c1c2c(nc3ccccc13)CCC2	inactive	–
CCc1ccccc1NC(=O)CN(C)C(=O)Cn1ncc(Cl)c(Cl)c1=O	inconclusive [cytotoxic, single point]	–
